Screen size: about 310,000 compounds; about 14,000 (4.5%) showed an effect of 50% or more. The effect is printed as a negative number. This is one part of the list.
Biological target: human ether-à-go-go-related gene (hERG) potassium channel (human, UniProt Q12809)
Test: primary screen, population patch clamp on CHO cells stably expressing hERG
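Note: peak tail current of the secondary pulse compared with the same well before compound.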

Chain of human ether-à-go-go-related gene (hERG) potassium channel (Q12809 whole entry, looked up): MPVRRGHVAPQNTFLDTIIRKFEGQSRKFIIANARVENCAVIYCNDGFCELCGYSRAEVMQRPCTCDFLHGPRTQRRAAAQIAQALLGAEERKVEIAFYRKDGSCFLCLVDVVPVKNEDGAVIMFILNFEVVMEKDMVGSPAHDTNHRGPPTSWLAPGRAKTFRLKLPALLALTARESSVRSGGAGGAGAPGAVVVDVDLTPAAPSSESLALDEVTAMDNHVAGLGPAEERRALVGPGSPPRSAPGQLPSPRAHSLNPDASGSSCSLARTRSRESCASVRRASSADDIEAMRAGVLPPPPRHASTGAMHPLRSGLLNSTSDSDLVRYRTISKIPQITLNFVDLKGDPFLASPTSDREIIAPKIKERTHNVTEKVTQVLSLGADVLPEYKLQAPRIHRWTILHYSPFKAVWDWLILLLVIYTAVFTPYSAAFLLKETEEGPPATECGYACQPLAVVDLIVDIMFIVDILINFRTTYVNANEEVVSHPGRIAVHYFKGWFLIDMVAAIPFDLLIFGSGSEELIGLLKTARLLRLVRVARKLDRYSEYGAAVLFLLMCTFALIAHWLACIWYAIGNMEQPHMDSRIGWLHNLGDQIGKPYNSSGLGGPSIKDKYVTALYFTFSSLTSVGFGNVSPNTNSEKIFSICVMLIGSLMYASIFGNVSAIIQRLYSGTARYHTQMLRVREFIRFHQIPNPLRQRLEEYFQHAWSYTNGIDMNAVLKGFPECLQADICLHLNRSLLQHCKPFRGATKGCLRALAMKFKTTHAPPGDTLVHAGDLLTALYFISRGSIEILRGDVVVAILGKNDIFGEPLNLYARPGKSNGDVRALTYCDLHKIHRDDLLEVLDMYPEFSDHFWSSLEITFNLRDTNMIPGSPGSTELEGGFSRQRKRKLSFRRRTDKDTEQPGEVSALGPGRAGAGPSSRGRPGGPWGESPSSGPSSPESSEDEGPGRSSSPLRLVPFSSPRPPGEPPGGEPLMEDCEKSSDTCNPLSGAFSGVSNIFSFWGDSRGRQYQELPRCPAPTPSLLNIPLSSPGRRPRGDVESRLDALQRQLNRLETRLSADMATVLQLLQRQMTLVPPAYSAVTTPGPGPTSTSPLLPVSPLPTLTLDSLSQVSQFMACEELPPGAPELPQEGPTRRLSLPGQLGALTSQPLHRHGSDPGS

Row | Structure (SMILES) | hERG current change (%, negative = inhibition) at 10uM [%]
1 | COc1ccc(/C=C2\SC(=S)N(CCC(=O)Nc3cccc(O)c3)C2=O)cc1OC | 14.5
2 | COc1ccc(C(=O)N/C(=C/c2ccc(Cl)cc2)C(=O)Nc2ccc(C(=O)O)cc2)cc1 | 11.4
3 | Cc1coc2c1c(C)cc1oc(=O)c(CC(=O)N[C@H](C(=O)O)C(C)C)c(C)c12 | 12.4
4 | CC(=O)Nc1ccccc1NC(=O)c1ccccc1 | 14.5
5 | Cc1cc(C)c2nc(N(CCCN(C)C)C(=O)c3ccc4c(c3)CCCC4)sc2c1.Cl | -3.72
6 | CCNC(=O)c1cccc(NC(=O)CC2SC(N3CCCCC3)=NC2=O)c1 (stereo not drawn) | 15.3
7 | COc1cc(OC)cc(C(=O)NCC(=O)NCC(c2ccco2)N2CCCCC2)c1 (stereo not drawn) | 11.5
8 | CCS(=O)(=O)Nc1ccc(C(=O)CC2(O)C(=O)Nc3ccc(Br)cc32)cc1 (stereo not drawn) | 19.5
9 | CCOC(=O)c1cc2c(nc1N)CCCC2 | 3.35
10 | O=C(NCCN1CCN(Cc2ccccc2)CC1)c1cc2c(=O)[nH]c3ccccc3c2s1 | -4.5
11 | O=C(NC1CCCCCC1)C1CCCN1S(=O)(=O)c1cccc2cccnc12 (stereo not drawn) | 4.56
12 | Cc1cc(NC(=O)CSC2=NCCS2)no1 | 5.17
13 | CN(C(=O)CSc1nc2cc(C(=O)O)ccc2c(=O)n1Cc1ccccc1)C1CCS(=O)(=O)C1 (stereo not drawn) | 37.8
14 | O=C(c1ccc(Br)o1)N(c1ccccn1)C1CCCCC1 | -10.9
15 | Cc1ccc(F)cc1NC(=O)CSc1nnc(CNC(=O)c2ccco2)n1C | -9.47
16 | O=C(NC(=S)NCCc1ccccn1)c1ccco1 | 17.4
17 | CCOc1ccc(N(CC(=O)N2CCCCCC2)S(C)(=O)=O)cc1 | 14.7
18 | CCn1cc(CNC(=O)C2CCC(=O)N(C3CCCCCC3)C2)cn1 (stereo not drawn) | 15.1
19 | O=C(Nc1ccc(F)c([N+](=O)[O-])c1)C1CC(=O)N(Cc2ccccc2)C1 (stereo not drawn) | -34.4

Row | Structure (SMILES) | hERG current change (%, negative = inhibition) at 10uM [%]
20 | Cl.NC(=O)c1c(NC(=O)Cc2ccccc2)sc2c1CCN(Cc1ccccc1)C2 | 7.96
21 | COc1ccc(-c2ccc(C)cc2)cc1[C@H]1[C@H]2C=CC[C@@H](C)[C@@H]2C(=O)N1Cc1ccccc1 | 5.42
22 | CN(C)c1ccnc(Nc2ccccc2)c1C#N | 5.53
23 | Cc1ccc(S(=O)(=O)Oc2cc(N)c3c(n2)CCC3)cc1 | 18.8
24 | CS(=O)(=O)c1ccc(C2=C(c3ccccc3)C(=O)OC2)cc1 | -13.3
25 | CC1(C)CC(=O)C(C=NCCN2CCN(C(=S)Nc3ccc(F)cc3)CC2)=C(O)C1 | -27.8
26 | COc1ccccc1C/C(N)=N/O | 3.69
27 | CCCC1=Nc2cc(C(=O)NCCCOCC)ccc2Sc2ccccc21 | -0.882
28 | O=C(Oc1c(-c2ccccc2)c(=O)n2c3c(cccc13)CC2)c1ccc(Cl)cc1 | 4.16
29 | Cc1c(C(=O)OC(C)C(C)C[N+](C)(C)C)oc2ccccc12.[I-] (stereo not drawn) | 10.2
30 | Cn1nc(Oc2nc(N3CCOCC3)nc(N3CCOCC3)n2)ccc1=O | -8.79
31 | CCOc1ccc(N(CC(=O)N/N=C/c2ccccn2)S(=O)(=O)c2ccc(Cl)cc2)cc1 | -10.4
32 | COc1cc(C(=O)Oc2c(CN3CCOCC3)cc(Cl)c3cccnc23)cc(OC)c1OC | -33.6
33 | C/C=N\NC(=O)CNC(=O)CNC(=O)c1ccccc1 | 14.4
34 | CC(/C=N/NC(=O)CN1CCN(Cc2ccc(Cl)cc2)CC1)=C\c1ccco1 | -69.2
35 | CCCSc1oc(-c2ccco2)nc1S(=O)(=O)c1ccccc1 | -29.1
36 | Cn1c(=O)c2[nH]c(-c3ccccc3Cl)c(O)c2n(C)c1=O | -1.88
37 | CCOC(=O)C1C(=O)N(C(=O)c2ccc(OC)cc2)CC1c1ccccc1 (stereo not drawn) | 14.9
38 | COc1ccccc1N1CCN(/N=C/c2ccc(O)c(O)c2)CC1 | 2.89

Row | Structure (SMILES) | hERG current change (%, negative = inhibition) at 10uM [%]
39 | Cc1nn(CCC(N)=O)c2nc(-c3cccs3)cc(C(F)(F)F)c12 | -6.5
40 | CCOC(=O)c1ccc(CSc2nnc(C)n2N)o1 | 12.6
41 | CC1(C(=O)NC2CCCCCCC2)CCC(=O)N1Cc1ccco1 (stereo not drawn) | 5.05
42 | COc1ccccc1N1CCN(C(=O)Nc2cccc(Cl)c2)CC1 | -28.2
43 | CCn1c(C)nnc1SCC(=O)Nc1cccc(C(F)(F)F)c1 | 12.4
44 | Cc1cc(C)c(S(=O)(=O)NC(CC(=O)O)c2cccc([N+](=O)[O-])c2)c(C)c1 (stereo not drawn) | 18.6
45 | CC(=O)Nc1ccc(Nc2ccc(S(=O)(=O)C(F)(F)F)cc2[N+](=O)[O-])cc1 | -9.38
46 | CN(C)c1ccc(NS(=O)(=O)c2cccc(Cl)c2)cc1 | 11.6
47 | O=c1c(-c2ccccc2)c[nH]n1-c1cccc([N+](=O)[O-])c1 | 22.6
48 | O=C(/C=N/O)Nc1ccc(F)cc1 | -0.933
49 | Fc1ccccc1CNC(=S)Nc1cccc(C(F)(F)F)c1 | -4.64
50 | CCNC(=O)c1sccc1-n1cccc1 | 15.6
51 | CCN(CC)c1ccc(NC(=O)c2[nH]c(C)c(C(C)=O)c2C)c(C)c1 | 12.3
52 | COc1cccc(NC(=O)c2ccncc2)c1 | 14.3
53 | Cc1ccccc1-n1nc2c(c1NC(=O)c1cc3ccccc3oc1=O)CS(=O)C2 (stereo not drawn) | -0.677
54 | COc1ccccc1C1C([N+](=O)[O-])=CC([N+](=O)[O-])=CN1C (stereo not drawn) | -6.69
55 | COc1cc(CNC(=O)c2cnc(C)cn2)cc(OC)c1 | 19.6
56 | O=C(OCCN=C1NS(=O)(=O)c2ccccc21)c1ccccc1F | -5.43
57 | Cc1noc(COc2ccc(OCc3nc(C)no3)cc2)n1 | 6.69

From PMC4336329 (PLoS ONE, 2015)
